Results on 39 compounds are retold here after the supplement of paper PMC12355420.

The structures appear in SMILES notation. Where “and” joins values, the source holds several entries; their conditions need not be identical. Equal entries are not always repeated. Structures can show the parent of a compound that is named as a salt. The list shows a part of the results. Most values come without repeats; read them as rough.
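Note: primary screen of an FDA-approved drug library in HeLa reporter cells in 96-well format, CellMask signal normalized to DMSO-treated wells set as 1, under 0.5 deemed highly cytotoxic.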

The subject of this assay is HeLa VPS33A reporter cells. As to the kind of experiment: relative cell viability (CellMask signal) vs DMSO (fraction of DMSO); HeLa model of a glycosaminoglycan (GAG) storage disease; KI is knock-in and KO knock-out; SDC1 is syndecan 1; higher = less cytotoxic. The conditions noted are these: 50 µM; 24 h.
As for `Nc1ccc(C(=O)O)c(O)c1` [4-Aminosalicylic acid], the relative cell viability came out at 1.02.

`N=C(N)N/N=C/c1c(Cl)cccc1Cl` [Guanabenz Acetate] came in with a relative cell viability of 1.03.

For the compound `O=C(O)c1ccccc1O` [Salicylic acid], the relative cell viability was determined as 1.27.

As to `CCCC(CCC)C(=O)O` [Valproic acid], the relative cell viability was determined as 1.3.

Take `CCn1cc(C(=O)O)c(=O)c2ccc(C)nc21` [Nalidixic acid]: the relative cell viability is 0.953.

In turn, `Oc1ccc(OC2CCCCO2)cc1` (centres undefined) [Deoxyarbutin] returned a relative cell viability of 1.03.

For `O=C([O-])c1ccccc1O.[Na+]` [Sodium salicylate], the relative cell viability amounted to 0.977.

As to `CC(C)(C)c1nc(-c2cccc(NS(=O)(=O)c3c(F)cccc3F)c2F)c(-c2ccnc(N)n2)s1`, the relative cell viability was 1.23 and 1.14.

On to `O=Cc1ccc(OC2OC(CO)C(O)C(O)C2O)cc1` (centres undefined) [Helicid], for which the relative cell viability came out at 0.97.

For the compound `NNC(=O)c1ccncc1.Nc1ccc(C(=O)O)c(O)c1` [Pasiniazid], the relative cell viability was found to be 1.1.

With `Cc1nccn1CC1CCc2c(c3ccccc3n2C)C1=O` (centres undefined) [Ondansetron hydrochloride dihydrate], the relative cell viability was 1.44.

`CN(C)C(=O)c1cc2cnc(Nc3ccc(N4CCNCC4)cn3)nc2n1C1CCCC1` showed a relative cell viability of 0.513.

`Nc1nc(=O)c2nc(CNc3ccc(C(=O)N[C@@H](CCC(=O)O)C(=O)O)cc3)cnc2[nH]1` [Folic acid]: the relative cell viability came out at 0.823.

In the case of `O=c1oc2cc(O)ccc2s1` [Tioxolone], the relative cell viability was 0.819.

Turning to `O=C(O)Cc1cc(I)c(Oc2ccc(O)c(I)c2)c(I)c1` [Tiratricol], the relative cell viability turned out to be 1.1.

As for `COc1nc2ccc(Br)cc2cc1[C@@H](c1ccccc1)[C@@](O)(CCN(C)C)c1cccc2ccccc12` [Bedaquiline], the relative cell viability was 0.63.

The compound `Nc1c2c(nc3ccccc13)CCCC2` [Tacrine hydrochloride] returned a relative cell viability of 1.01.

Take `C=CCc1cc(OC)c(O)c(C(=O)NCCO)c1` [Alibendol]: the relative cell viability came to 1.04.

On to `CCOc1cc([C@@H](CS(C)(=O)=O)N2C(=O)c3cccc(NC(C)=O)c3C2=O)ccc1OC`, for which the relative cell viability came out at 1.08.

As to `CCC(C)n1ncn(-c2ccc(N3CCN(c4ccc(OCC5COC(Cn6cncn6)(c6ccc(Cl)cc6Cl)O5)cc4)CC3)cc2)c1=O` (centres undefined) [Itraconazole], the relative cell viability worked out at 1.11.

As for `NC(=O)c1ncn([C@@H]2O[C@H](CO)[C@@H](O)[C@H]2O)c1O` [Mizoribine], the relative cell viability was 0.934.

Take `Cc1cc(O)c2c(c1)C(=O)c1cc(O)cc(O)c1C2=O` [Emodin]: the relative cell viability amounted to 0.998.

Regarding `COc1c2occc2cc2ccc(=O)oc12` [8-Methoxypsoralen], the relative cell viability stood at 1.06.

`CCCC(=O)Nc1ncnc2c1ncn2[C@@H]1O[C@@H]2COP(=O)(O)O[C@H]2[C@H]1OC(=O)CCC` [Dibutyryl-cAMP, sodium salt] yielded a relative cell viability of 1.09.

In turn, `CCOC(=O)c1ccc(N)cc1` [Benzocaine] registered a relative cell viability of 0.916.

In turn, `O=S(=O)(O)CCS` [Mesna] showed a relative cell viability of 1.05.

In turn, `COc1cc2nc(N3CCN(C(=O)C4CCCO4)CC3)nc(N)c2cc1OC` (centres undefined) [Terazosin HCl] gave a relative cell viability of 1.13.

In turn, `OC1OC[C@H](O)[C@H](O)[C@H]1O` (mixture of isomers) [L-Arabinose] registered a relative cell viability of 1.09.

`Nc1nc2n[nH]nc2c(=O)[nH]1` [Azaguanine-8]: the relative cell viability amounted to 0.773.

On to `C[C@]12CCC(=O)C=C1C=C[C@@H]1[C@@H]2CC[C@@]2(C)[C@H]1CC[C@@]21CCC(=O)O1` [Canrenone], for which the relative cell viability turned out to be 1.18.

In turn, `C#C[C@]1(O)CC[C@H]2[C@@H]3CCC4=CC(=O)CC[C@@H]4[C@H]3C(=C)C[C@@]21CC` [Etonogestrel] gave a relative cell viability of 1.02.

In turn, `COc1ccc(CN(CCN(C)C)c2ccccn2)cc1` [Mepyramine maleate] gave a relative cell viability of 1.13.

On to `NC(N)=Nc1nc(CSCC/C(N)=N/S(N)(=O)=O)cs1` [Famotidine], for which the relative cell viability came to 1.25.

The compound `COc1ccc2cc(CCC(C)=O)ccc2c1` [Nabumetone] came in with a relative cell viability of 1.02.

In turn, `NS(=O)(=O)c1cc2c(cc1Cl)NCNS2(=O)=O` [Hydrochlorothiazide] displayed a relative cell viability of 0.998.

In the case of `Nc1ccc(C(=O)O)c(O)c1` [Sodium 4-Aminosalicylate], the relative cell viability amounted to 0.97.

For `Nc1ccc(O)c(C(=O)O)c1` [Mesalamine], the relative cell viability was determined as 0.949.

In turn, `Nc1ccn([C@@H]2O[C@H](CO)[C@@H](O)[C@@H]2O)c(=O)n1` [Cytarabine] displayed a relative cell viability of 1.57.

The compound `Cc1cc(C2CCCCC2)n(O)c(=O)c1` [Ciclopirox] showed a relative cell viability of 0.938.
